Measured values as given in the supplement of paper PMC7826260.
The other results are listed elsewhere or left out. One pool of 16,384 single-stranded DNAs met each Rep nickase domain in vitro at 3 µM enzyme and 37 °C for 1 h; the strands have 90 letters, of which the middle is given. Values are log2 of uncut reads against the no-enzyme pool; uncut sequences lie near 0, cut ones below; no hit call is given. Shares of all reads are compared; uncut strands gain when others are lost, and binding without cutting may add a little.

system: T1, Rep nickase domain of chickpea chlorotic dwarf virus; assay: uncleaved DNA left, log2 of reads against the no-enzyme library (log2 ratio); higher = less cleavage (more negative = more Rep cleavage of the k-mer); sequences stand for … in CTCGTCCG…ACCGGAGA
T1 sequence (residues 1-124 of Rep, tag left off): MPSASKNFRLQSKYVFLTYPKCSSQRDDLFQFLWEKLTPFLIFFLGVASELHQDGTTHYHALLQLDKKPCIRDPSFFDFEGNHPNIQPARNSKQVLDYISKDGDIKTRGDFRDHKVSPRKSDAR
Method: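 A pool of 90-nt single-stranded DNAs with seven random bases just before the constant AC of the nick site (name = the seven bases) was cut by 3 µM recombinant His6-SUMO-tagged Rep nickase domain (300 nM DNA, 50 mM HEPES pH 8.0, 50 mM NaCl, 1 mM MnCl2, 1 h, 37 °C, three replicates). Uncut DNA was amplified and sequenced.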

| Sequence | uncleaved DNA left (log2) |
| --- | --- |
| CCTTAGC | -0.214 |
| CGACGCG | -0.182 |
| GATCTTC | 0.718 |
| CGCGCGA | -0.713 |
| GTTCTTG | 0.36 |
| AGAATCC | 0.964 |
| ACCGACT | -0.467 |
| TGTTGGA | -0.265 |
| AGCGCCT | 0.225 |
| TGTCATC | 0.807 |
| AGTAGAA | 0.413 |
| GTCTACT | 0.0517 |
| AGGGTAT | 1.63 |
| GACACCC | 0.263 |
| TTAACGG | 1.56 |
| AGTCGTC | 0.000203 |
| ACGAAAG | -0.37 |
| CGAATGG | 0.462 |
| GAAAGCC | -0.216 |
| GCTGTTC | 0.203 |

| Sequence | uncleaved DNA left (log2) |
| --- | --- |
| CCCGGGC | 0.86 |
| GCACATG | -0.0851 |
| CCGGTGC | -0.292 |
| GAGCTCA | -0.373 |
| GAACGAT | 0.261 |
| GCACGAC | 0.235 |
| ATACCAC | -0.336 |
| GGAATTT | 1.19 |
| TATTTTG | -0.556 |
| CCGCAGT | -0.552 |
| AGCATCT | -0.592 |
| GCAAAGG | 0.772 |
| TATTAGG | 1.18 |
| GAGTGGA | 0.549 |
| AGACATC | 1.77 |
| CGAGCGG | 0.817 |
| TTGAGAG | -0.387 |
| GCGAGCG | 0.0132 |
| GTCACTC | 0.879 |
| ATCATAA | -0.164 |
